Data: PubChem BioAssay AID493208 (National Center for Advancing Translational Sciences (NCATS), 2011)
The whole screen tested about 44,000 compounds, of which about 340 (0.77%) were called active. About 5% were inconclusive and are not listed. Calls follow the shape of the dose curve; as a rule, active = well fitted inhibition curve with a large enough effect; inconclusive = small, poorly fitted or top-dose-only effect; inactive = flat fitted curve, though single readings scatter. The list shows a part of the results.

Assay: Acumen qHTS Assay for Inhibitors of the mTORC1 Signaling Pathway in MEF (Tsc2-/-, p53-/-) Cells: Sytravon;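 also: plate controls were DMSO for no effect and rapamycin for full effect; nearly all actives have a fitted effect of over 50% in size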
Settings: phospho-rpS6 immunofluorescence/PI, 24 h; series mostly up to 38.3 µM; activity change, negative = inhibition: at the top concentration
Method in brief: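 Tsc2-/-, p53-/- MEFs (empty-vector stable line) in DMEM + 10% FBS were treated with compounds 24 h at 37 degree Celsius, fixed, and immunostained for phospho-rpS6 (Alexa-488) with propidium iodide counterstain. Laser-scanning cytometry gave % positive cells, normalized against 7.5 nM rapamycin and DMSO.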

Activity change, negative = inhibition, inactive:
CCCOc1cccc(C(=O)N(Cc2ccc(C)o2)C2CCS(=O)(=O)C2)c1 (stereo not drawn) -0.631%
COCCNc1sc(S(=O)(=O)c2ccc(C)cc2)nc1S(=O)(=O)c1ccc(C)cc1 -9.99%
CC(=O)Nc1ccc(NC(=O)CSc2nccn2C)cc1 -0.266%
COc1cc(NC(=O)CC2C(=O)N(c3cccc(C)c3)C(=O)N2Cc2ccc(F)cc2)cc(OC)c1 (stereo not drawn) -0.798%
CCOC(=O)c1cc2c(=O)n3ccccc3nc2n(CC(C)C)c1=NC(=O)c1c(-c2c(F)cccc2Cl)noc1C -4.79%
CCCN(C(=O)c1noc2c1COc1ccc(C)cc1-2)c1ccc(Cl)c(Cl)c1 0%
COC(=O)c1ccccc1NC(=O)c1c(NC(=O)c2ccco2)sc2c1CCC(C(C)(C)C)C2 (stereo not drawn) 12%
CC(=O)c1cccc(NC(=O)c2sc(-n3nc(C)c(Cc4ccc5c(c4)OCO5)c3C)nc2C)c1 -17.6%
CCOc1ccc(-c2cccc(NS(=O)(=O)c3c(C)cc(C)cc3C)c2)nn1 -4.9%
COc1ccccc1CCNC(=O)C(=O)NCC(c1ccc2c(c1)OCO2)N1CCOCC1 (stereo not drawn) -2.01%
Cc1ccc2oc3c(c(=O)c2c1)C(c1ccc(F)cc1)N(Cc1ccc2c(c1)OCO2)C3=O (stereo not drawn) -1.93%
COc1cccc(CNC(=O)C(=O)Nc2c3c(nn2-c2ccccc2)CSC3)c1 -0.0434%
CCN(C(=O)C1CCN(S(=O)(=O)c2ccc3c(c2)CCCN3C(C)=O)CC1)c1cccc(C)c1 -4.84%
COc1ccccc1OCC(=O)NCC(c1ccc(Cl)cc1)N1CCCCC1 (stereo not drawn) -10.9%
Cc1c(Cl)cccc1NC(=O)Cn1c(CCC(=O)O)ccc1-c1cccs1 5.65%
CCOC(=O)c1c(NC(C)=O)c2c3c(sc2n1Cc1nc(-c2cccc(Cl)c2)oc1C)CCCC3 -6.37%
Cc1c(-c2ccc(Br)cc2)c(=O)oc2ccc(OC(=O)N3CCOCC3)cc12 -12.7%
COc1ccc(OC)c(-c2nnc3n(Cc4ccc(C)cc4)c(=O)c4ccccc4n23)c1 1.13%
CCN(CC)C(=O)CSc1nc(-c2ccccc2F)nc2c1Cc1c(CO)cnc(C)c1O2 -22.2%
CC(C)(C)OC(=O)N1CCC(c2c(C(=O)N3CCCCC3)cnn2-c2ccc(Cl)cc2)CC1 5.01%
CCOc1cc(C(=O)NCCc2csc3nc(-c4ccc(C)cc4)nn23)cc(OCC)c1OCC -0.174%
COC(=O)c1ccccc1NC(=O)CSc1nc2ccsc2c(=O)n1CCC(C)C -1.57%
COc1ccc(Cc2nc3ccccc3[nH]c2=O)cc1 -12.9%
C=Cc1ccc(Cn2c(C)c(CNCc3cccc(Br)c3)c(C(=O)O)c2C)cc1 -2.05%
Cc1cccc(Cn2c(CNS(=O)(=O)c3ccc4c(c3)CCCC4)nc3cccnc32)c1 1.29%
Cc1c(Cl)cccc1-c1ccc(C(=O)Nc2ccc(F)cc2)o1 6.01%
CCOC(=O)c1c(S(=O)(=O)N2CCCC(C(=O)NCc3ccc(Cl)cc3)C2)c(C)n(C)c1C (stereo not drawn) -1.45%
COc1ccc(F)cc1S(=O)(=O)NCCc1csc2nc(-c3cccc(C)c3)nn12 -5.07%
COC(=O)c1ccc(OCC2c3cc(OC)c(OC)cc3CCN2C(=O)COc2ccc(Cl)cc2)cc1 (stereo not drawn) 8.87%
O=C(c1ccccc1Cl)N1c2ncnn2C2(CCCCC2)[C@@H]2CCCC[C@@H]21 -1.17%
CCOC(=O)c1noc2ncn(CC(=O)Nc3ccc(C)c(F)c3)c(=O)c12 0.0694%
Cc1cccc(NC(=O)CCS(=O)(=O)c2ccc3c(c2)n(C)c(=O)c(=O)n3C)c1C -13.4%
CCOC(=O)C1CCCN(C(=O)c2nn(-c3ccc(OC)cc3)c(=O)c3c2c2ccccc2n3C)C1 (stereo not drawn) 4.98%
Nc1nc(Nc2ccccc2F)sc1C(=O)c1ccc(Cl)cc1 -2.39%
CCc1cccc(NC(=O)C2CCN(C(=O)c3cnn(-c4ccccc4)c3-n3cccc3)CC2)c1 -0.225%
Cc1ccc(-n2c(=O)c3c(C)c(C(=O)N(C)C)sc3n(CC(=O)C(C)(C)C)c2=O)cc1C -3.59%
O=c1cc(-c2ccccc2)n2c(SCc3ccccc3)nnc2[nH]1 0.0486%
Cc1c(C(=O)N(Cc2ccccc2F)C2CCS(=O)(=O)C2)oc2ccc(F)cc12 (stereo not drawn) 0%
COc1ccc(N2CC(NC(=O)COc3ccccc3)CC2=O)cc1OC (stereo not drawn) -5.77%
Cn1c(=O)c2c(nc(NCc3ccccc3)n2Cc2ccccc2)n(C)c1=O -6.69%
Cn1c(=O)c2c(SCC(=O)NCc3ccco3)nc(-c3ccccc3)nc2n(C)c1=O -5.07%
CN(c1ncnc2onc(-c3cccc(Cl)c3)c12)C1CCCCC1 -6.52%
Cc1cccc(CNC(=O)Cn2nc(C)n3c(cc4cc(F)ccc43)c2=O)c1 -0.558%
CCc1ccc(-n2nc3cc(C)c(NC(=O)c4cccc5ccccc45)cc3n2)cc1 -5.61%
CC(C)CN(CCCNC(=O)Cn1ncc2c3ccccc3n(C)c2c1=O)CC(C)C -0.225%
COc1ccc(Cl)cc1NC(=O)CCS(=O)(=O)c1nc(-c2cccs2)cc(C(F)(F)F)n1 0.729%
CCOC(=O)c1ccc(NC(=O)Nc2c[nH]c(=O)[nH]c2=O)cc1 5.7%
Cc1ccc(CNC(=O)c2cc3c(s2)-c2ccccc2SC3)cc1 -8.2%
CCOC(=O)c1cc(-c2ccccc2)n(CC(=O)NC(C)c2ccccc2)c1C (stereo not drawn) -15.6%
CC(C)COc1ccc(C(=O)Nc2cccc(-c3nc4ccccc4[nH]3)c2)cc1 21.2%
CCc1ccc(OC(C)C(=O)N2CCC(c3nc4ccccc4s3)CC2)cc1 (stereo not drawn) -6.9%
O=C(NC1(C(F)(F)F)C(=O)Nc2c1c(=O)[nH]c(=O)n2CCc1ccccc1)c1ccc(Cl)cc1Cl (stereo not drawn) 2.95%
COc1ccccc1-c1cc2nc(C)c(CCC(=O)Nc3ccc(Br)c(C)c3)c(C)n2n1 -0.898%
CCn1cc(C(=O)N2CCN(c3cccc(C(F)(F)F)c3)CC2)c2cc(OC)c(OC)cc2c1=O 2.75%
CCOc1ccccc1NC(=O)C1CCCN(S(=O)(=O)c2c(C)[nH]c(=O)[nH]c2=O)C1 (stereo not drawn) 1.44%
CCOc1ccc(/C=C(\C#N)c2nc3ccccc3c(=O)[nH]2)cc1OC 5.01%
O=C(CSc1nnc(-c2ccccc2)c(-c2ccccc2)n1)NC1CCCCC1 -10.2%
CCOC(=O)N1CCc2c(sc(NCc3cccc(F)c3)c2C(=O)Nc2ccccc2OCC)C1 -2.44%
Cc1nc(N2C(=O)c3oc4ccccc4c(=O)c3C2c2cccc(OCCC(C)C)c2)sc1C (stereo not drawn) -1.8%
Cc1ccc(N2CC(NC(=O)Cc3cccs3)CC2=O)cc1C (stereo not drawn) -1.17%
COC(=O)c1nnn(CC(=O)NC(=O)Nc2cccc(C)c2C)c1C(=O)OC -5.65%
CCc1nc2ccc(C(=O)N3CCN(c4ccccc4)CC3)cc2nc1CC -7.62%
COc1ccc2c(c1)CCc1c(C(=O)Nc3ccc(F)c(Cl)c3)noc1-2 -1.11%
CCOc1cc(-c2nnc(SCC(=O)Nc3ccc(F)c(F)c3)nc2-c2ccc(OC)c(OCC)c2)ccc1OC 3.63%
COc1ccc(S(=O)(=O)N(CCc2ccccc2)CC(=O)Nc2ccc(C)c(C)c2)cc1OC 9.87%
CCC(=O)Nc1nnc(SCc2cc(=O)c3cc(C)ccc3[nH]2)s1 8.37%
O=C(Nc1cccc(-c2nc3ccccc3o2)c1)c1ccc(-c2ccc(Br)cc2)o1 -13%
Cc1c(C(=O)OC2CCCC2)[nH]c2c1C(=O)CC(c1ccc(Cl)cc1)C2 (stereo not drawn) -7.33%
O=S(=O)(Nc1ccc(-c2ccc(N3CCCC3)nn2)cc1)c1ccc(Cl)cc1 -2.6%
CC(=O)N1CCc2c(sc3c2c(=O)n(-c2ccccc2)c(=O)n3CC(=O)Nc2cccc(C)c2)C1 1.48%
CCOc1ccc(CNS(=O)(=O)c2c(C(=O)N3CCC(C)CC3)c(C)n(C)c2C)cc1OC 0%
CC(C)N(C(=O)CSc1nc2ccc(Cl)cc2[nH]1)c1ccccc1 -2.57%
COc1ccccc1CNC(=O)CCCc1nnc2n(CC(C)C)c(=O)c3sccc3n12 -4.73%
COc1ccccc1CNC(=O)CCC1N=C2c3ccccc3N=C(SCc3cccc(Cl)c3)N2C1=O (stereo not drawn) -21.2%
O=C(c1ccc(F)cc1)N1c2nc(-c3ccco3)nn2C2(CCCCC2)[C@@H]2CCCC[C@@H]21 0.0686%
COc1ccc(-c2cc3nc(-c4ccc(C)cc4)cc(C(F)(F)F)n3n2)cc1 -0.667%
CCOc1ccc(OCC)c(NS(=O)(=O)c2cc(Br)cc3c2N(C(C)=O)C(C)C3)c1 (stereo not drawn) -15.2%
CCCCN(CC)CCNC(=O)c1cc2c(=O)oc3ccc(C)cc3c2s1 -9.35%
CCn1c(=O)c2cc(C(=O)NCCc3cc(OC)ccc3OC)sc2c2ccccc21 3.15%
CCc1ccc2oc(-c3ccc(NC(=O)c4ccc(OC)c(Br)c4)cc3)nc2c1 -0.648%
Cc1ccc(-n2c(C)nc3c(cnn3-c3ccccc3C)c2=O)cc1F -19.5%
O=C(NCc1cccc(F)c1)c1ccc(-n2cnc3cccnc32)cc1 1%
Cn1cc(S(=O)(=O)c2ccccc2)c(=O)c2cc(F)c(N3CCN(c4ccccc4)CC3)cc21 0.453%
Cc1cccc(-n2c(-c3ccccc3)cn3c4c(=O)[nH]c(=O)n(C)c4nc23)c1 -26.9%
Cc1ccc(-c2cc(C(F)(F)F)n3nc(C(=O)Nc4ccc(Cl)c(C(F)(F)F)c4)cc3n2)cc1 1.22%
Cc1cccc(C)c1OCC(=O)Nc1nc(-c2ccc(Br)cc2)ns1 0.135%
Cc1cc(C)c(Cn2c3ccccc3c3cnn(CC(=O)N4CCCCCC4)c(=O)c32)c(C)c1 0.985%
O=C(Cn1c(=O)n(-c2cccc(Cl)c2)c(=O)c2sc3ccccc3c21)N1CCCC1 -11.3%
CCOc1ccc(C(=O)Nc2c(C(=O)Nc3ccccc3F)oc3ccccc23)cc1OCC -4.65%
CCN(CC)CCCNC(=O)C1CCN(S(=O)(=O)CC)CC1 3.56%
CC(=O)c1ccc(NC(=O)c2c3c(nc4ccccc24)C(=O)N(C2CCCCC2)C3)cc1 -24.3%
O=S1(=O)c2ccccc2N(Cc2ccccc2)c2ccccc21 -7.3%
COC(=O)c1cc(C)nc2c1c(=O)nc(SCc1ccccc1F)n2C1CC1 7.53%
